Data from PubChem BioAssay AID248 (DTP/NCI, 2004).
Toxic doses and inconclusive results are not listed. For part of its entries the source gives two or more results. The other results are left out here. An entry can have further records. The records of an entry repeat one measurement across runs, samples, wells, individuals or studies.

Test system: L1210 leukemia ip in BDF1 mice, survival T/C
Assay: NCI In Vivo Anticancer Drug Screen. Data for tumor model L1210 Leukemia (intraperitoneal) in B6D2F1 (BDF1) mice
Conditions: endpoint: mean survival time, higher = longer survival

N#[N+]c1cnc([O-])[nH]c1=O
T/C (dose: 2.5 mg/kg/injection, schedule: Q01DX Z (ip), vehicle: saline): 109 % of control and 158 % of control

CC1(C)OCC(CO)(Nc2nc(N3CC3)nc(N3CC3)n2)CO1
T/C (dose: 5.0 mg/kg/injection, schedule: Q01DX009 (ip), vehicle: saline): 108 % of control and 165 % of control

O=C(c1ccccc1)c1cc(-c2ccccc2)n(C2CCCCC2)c1
T/C (dose: 100.0 mg/kg/injection, schedule: Q01DX009 (ip), vehicle: saline with Tween-80): 92 % of control and 179 % of control

O=C1C(NCCO)=C(N2CC2)C(=O)C(NCCO)=C1N1CC1
T/C (dose: 0.75 mg/kg/injection, schedule: Q01DX001 (ip), vehicle: saline): 86 % of control and 198 % of control

OCCOCCN1CCN(CC/C=C2\c3ccccc3Sc3ccc(C(F)(F)F)cc32)CC1
T/C (dose: 23.3 mg/kg/injection, schedule: Q01DX015 (ip), vehicle: saline): 94 % of control and 152 % of control

Cc1ccnc(NS(=O)(=O)c2ccc(N=Nc3nc4[nH]c(N)nc(=S)c4[nH]3)cc2)n1
T/C (dose: 12.5 mg/kg/injection, schedule: Q04DX003 (ip), vehicle: Klucel (hydroxypropylcellulose) (HPC)): 107 % of control, 156 % of control, 157 % of control

O=C(O)c1cc[c]([Hg][S]c2ncnc3nc[nH]c23)cc1
T/C (dose: 25.0 mg/kg/injection, schedule: Q01DX Z (ip), vehicle: carboxymethylcellulose (CMC)): 119 % of control and 152 % of control

CCOC(=O)c1cc(N(CCOS(C)(=O)=O)CCOS(C)(=O)=O)ccc1N
T/C (dose: 5.0 mg/kg/injection, schedule: Q01DX015 (ip), vehicle: saline): 118 % of control and 154 % of control

OCC1OC(n2cnc3c(=S)nc[nH]c32)C(O)C1O (centres undefined)
T/C (dose: 2000.0 mg/kg/injection, schedule: Q01DX001 (ip), vehicle: saline): 114 % of control and 159 % of control
